According to PubChem BioAssay AID1030 (National Center for Advancing Translational Sciences (NCATS), 2008):
Hit rate of the full screen: of about 220,000 compounds, about 16,000 (7.3%) were called active. The shares of active, inactive and inconclusive entries below differ from those in the screen. The call rests on the fitted dose curve; in most records, active means well fitted inhibition curve with a large enough effect (not every such curve was filed as active); inconclusive means small, poorly fitted or top-dose-only effect, or another doubt; inactive means no such curve, though single readings can be large or run the other way. Potencies of inconclusive entries are left out as doubtful fits.

molecular target: Aldehyde dehydrogenase 1A1 (Homo sapiens) (UniProt P00352); assay: qHTS Assay for Inhibitors of Aldehyde Dehydrogenase 1 (ALDH1A1); details: Purified ALDH1A1, NADH fluorescence, propionaldehyde substrate; series mostly up to 75.3 µM; activity, negative = inhibition: at the top concentration;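 on activity, negative = inhibition: plate controls were no enzyme wells and a reference inhibitor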
Sequence of UniProt P00352 (P00352 whole entry, looked up): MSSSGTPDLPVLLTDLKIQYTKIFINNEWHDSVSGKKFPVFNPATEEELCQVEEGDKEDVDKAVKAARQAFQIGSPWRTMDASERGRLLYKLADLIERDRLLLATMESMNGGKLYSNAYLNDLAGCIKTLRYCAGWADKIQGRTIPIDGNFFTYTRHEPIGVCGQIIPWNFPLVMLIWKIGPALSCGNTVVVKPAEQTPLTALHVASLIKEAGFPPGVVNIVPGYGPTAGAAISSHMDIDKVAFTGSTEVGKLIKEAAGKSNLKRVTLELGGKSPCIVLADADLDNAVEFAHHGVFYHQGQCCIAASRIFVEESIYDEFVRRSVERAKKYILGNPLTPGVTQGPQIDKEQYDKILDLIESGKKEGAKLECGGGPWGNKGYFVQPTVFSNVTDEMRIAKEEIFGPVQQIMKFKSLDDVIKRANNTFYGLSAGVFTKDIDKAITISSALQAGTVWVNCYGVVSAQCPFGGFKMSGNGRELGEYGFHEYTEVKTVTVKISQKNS
Potency means the concentration at half of the fitted maximal effect; tags describe the fitted curve by direction and shape.

How did the Potency turn out when `CCOC(=O)C1=C(O)C(=O)N(c2ccc(S(N)(=O)=O)cc2)C1c1ccc(OC)cc1` (stereo not drawn) was run?
Its Potency is inconclusive [inhibitor, single point].

Which Potency does the source give for `C=C(C)C(O)/C=C/c1ccc(OC)cc1` (stereo not drawn) here?
The Potency was inconclusive [inhibitor, single point].

How did the Potency turn out when `Cc1[nH]c2ccccc2c1C(=O)COC(=O)c1c(-c2ccccc2Cl)noc1C` was run?
Its Potency is inconclusive [inhibitor, single point].

Which “activity, negative = inhibition” value does the source give for `CC(C)(C)C(=O)COC(=O)c1ccc(N)c([N+](=O)[O-])c1` here?
The value was inactive: -14.4%.

`CCCCCNC(=O)CCn1c(=O)oc2ccccc21` was tested. Which “activity, negative = inhibition” value did it give?
The value was inactive: 1.96%.

For `Cc1ccc(C(=O)O[C@H](C(=O)O)[C@@H](OC(=O)c2ccc(C)cc2)C(=O)O)cc1` (tested in a mixture with another compound), which “activity, negative = inhibition” value is on record?
The value was inactive: -0.566%.

Which Potency does the source give for `O=C(Nc1cccc2c1CCCC2)c1ccco1` here?
The Potency was inconclusive [inhibitor, single point].

Which Potency does the source give for `COC(=O)c1[nH]c2ccc(Cl)cc2c1NC(=O)Oc1ccccc1` here?
The Potency was inconclusive [inhibitor, partial curve].

Which Potency does the source give for `Cc1cc(C)c2c(n1)sc1c(O)cc(=O)[nH]c12` here?
Its Potency is inconclusive [inhibitor, single point].

With `CC(C)c1ccccc1NC(=O)COc1ccc2c(=O)c(Oc3ccc4ccccc4c3)coc2c1` as the molecule, how does the “activity, negative = inhibition” value read?
The value was inactive: 10.9%.

With `COc1cccc(CN2CCNC(=O)C2CC(=O)N(C)CCc2ccccn2)c1OC` (stereo not drawn) as the molecule, how does the “activity, negative = inhibition” value read?
The value was inactive: 8.22%.

For `COc1ccc(C)cc1NC(=O)CN1C(=O)c2cccc3cccc1c23`, which Potency is on record?
Its Potency is inconclusive [inhibitor, single point].

For `Cc1cc(N)n2ncc(-c3cccc(Br)c3)c2n1`, which Potency is on record?
The Potency was inconclusive [inhibitor, partial curve].

With `COc1ccccc1N1CCN(CCCCNS(=O)(=O)c2cccc3c(N(C)C)cccc23)CC1` as the molecule, how does the Potency read?
The Potency was inconclusive [inhibitor, single point].

For `Cc1ccc(-n2cc(CNCCN3CCOC3=O)c(-c3ccc(F)cc3)n2)cc1`, which Potency is on record?
Its Potency is inconclusive [inhibitor, single point].

`Cc1cc(CC(=O)O)n(C)c1C(=O)c1ccc(Cl)cc1` was tested. Which Potency did it give?
Its Potency is “inactive”.

For `Cc1cc2ccccn2c1C(C[N+](=O)[O-])c1ccc(N(C)C)cc1` (stereo not drawn), which Potency is on record?
Its Potency is inconclusive [inhibitor, partial curve].

Which Potency does the source give for `CC(C)Cc1cc(C(=O)NCCCN2CCOCC2)no1` here?
The Potency was inconclusive [inhibitor, single point].

With `CCCOC(=O)c1ccc(NC(=O)c2ccccc2OC)cc1` as the molecule, how does the Potency read?
Its Potency is inconclusive [inhibitor, single point].

For `CC1=NN(c2ccccc2)C(=O)/C1=C\c1cn(CCC#N)nc1-c1ccc(Cl)cc1`, which “activity, negative = inhibition” value is on record?
Its value is inactive: -4.78%.

For `Cc1ccccc1OCC(=O)NCc1ccccc1`, which “activity, negative = inhibition” value is on record?
The value was inactive: -4.29%.

How did the “activity, negative = inhibition” value turn out when `O=C(Nc1cccnc1)c1cccc(S(=O)(=O)N2CCCCC2)c1` was run?
Its value is inactive: 1.85%.

For `Nc1cc(C(=O)OCC(=O)NCc2ccc(F)cc2)ccc1Cl`, which Potency is on record?
The Potency was inconclusive [inhibitor, partial curve].

With `COc1ccccc1-n1nc(C(=O)NCc2ccco2)c2ccccc2c1=O` as the molecule, how does the Potency read?
Its Potency is inconclusive [inhibitor, partial curve].

How did the Potency turn out when `CC1CCN(CCC(=O)N2CCCc3c2c(=O)oc2ccc(O)cc32)CC1` was run?
The Potency was active: 2.24 µM.

With `O=C(Nc1ccc2c(c1)OCO2)N1CCN(c2ncc(C(F)(F)F)cc2Cl)CC1` as the molecule, how does the Potency read?
Its Potency is inconclusive [inhibitor, single point].

Which Potency does the source give for `Cc1cccn2c(=O)c3cc(C(N)=S)c(=N)n(CCCOC(C)C)c3nc12` here?
Its Potency is inconclusive [inhibitor, partial curve].

`CCC(=O)N1CCc2cc(S(=O)(=O)CCC(=O)NCc3ccc4c(c3)OCO4)ccc21` was tested. Which Potency did it give?
The Potency was inconclusive [inhibitor, single point].

How did the Potency turn out when `CCOC(=O)C(=O)Nc1ccc(OCc2ccccc2)cc1` was run?
Its Potency is active: 25.1 µM.

Which “activity, negative = inhibition” value does the source give for `COc1ccccc1CNC(=O)COc1ccc(C)nc1[N+](=O)[O-]` here?
Its value is inactive: 8.34%.

How did the “activity, negative = inhibition” value turn out when `CC(=O)c1ccc(NC(=O)CC23CC4CC(C2)CC(n2nnc(C)n2)(C4)C3)cc1` was run?
Its value is inactive: -5.13%.

For `COc1cccc(C2=CC(c3cccs3)n3nnnc3N2)c1` (stereo not drawn), which Potency is on record?
The Potency was inconclusive [inhibitor, partial curve].

Which Potency does the source give for `COc1ccc(/C=C/c2cc[n+](C(=O)Cc3ccccc3)cc2)cc1` here?
Its Potency is inconclusive [inhibitor, partial curve].

For `O=C(COc1ccc(/C=N/NC(=O)c2ccccc2O)cc1)Nc1ccccc1`, which Potency is on record?
Its Potency is inconclusive [inhibitor, partial curve].

Which Potency does the source give for `O=C(Nc1ccc(F)cc1)C(c1ccccc1)N1CCN(S(=O)(=O)c2ccccc2)CC1` (stereo not drawn) here?
Its Potency is active: 10 µM.

For `CCc1cccc(C)c1NC(=S)NCC1CCN(c2ccc(OC)cc2)C1` (stereo not drawn), which Potency is on record?
The Potency was active: 10 µM.

Which Potency does the source give for `O=C(COC(=O)c1ccccn1)Nc1ccccc1Cl` here?
Its Potency is active: 22.4 µM.

With `COc1ccc2oc(=Nc3ccc(C(=O)O)cc3)c(C(=O)NCc3ccco3)cc2c1` as the molecule, how does the Potency read?
The Potency was inconclusive [inhibitor, single point].

`C#CCCOC(=O)N1C2=NC(C(=O)OC)=C(C(=O)OC)[C@@H]3N(CC#CC)c4ccccc4[C@]23C[C@H]1C(=O)OC` was tested. Which activity, negative = inhibition did it give?
Its activity, negative = inhibition is inactive: 6.61% [at 13.5 µM].

For `c1cncc(CSc2nnc3ccc(-c4ccco4)nn23)c1`, which Potency is on record?
Its Potency is inconclusive [inhibitor, single point].

`CCn1nnnc1SCC(=O)N1c2ccccc2CCc2ccccc21` was tested. Which Potency did it give?
Its Potency is active: 2 µM.

With `COc1ccc(CNC(=O)C23CN(Cc4ccccc4)CC2C(c2ccc([N+](=O)[O-])cc2)=NO3)cc1` (stereo not drawn) as the molecule, how does the Potency read?
The Potency was inconclusive [inhibitor, single point].

With `COc1cc(OC)cc(-c2nnc(SCC(=O)N(Cc3ccccc3)C(C)(C)C)o2)c1` as the molecule, how does the Potency read?
Its Potency is inconclusive [inhibitor, single point].

`CCN1CCN(S(=O)(=O)c2cc(OCC(=O)NC3CCCCC3)c(C)cc2Cl)CC1` was tested. Which Potency did it give?
The Potency was inconclusive [inhibitor, single point].

Which “activity, negative = inhibition” value does the source give for `Cc1noc(C(=O)N2CCN(c3ccc(F)cc3)CC2)c1Cl` here?
The value was inactive: 9.1%.

`CCOc1ccccc1NC(=S)NCc1ccco1` was tested. Which Potency did it give?
The Potency was active: 28.2 µM.

`COCCn1c(SCC#N)nnc1-c1ccc2c(c1)OCO2` was tested. Which Potency did it give?
The Potency was inconclusive [inhibitor, single point].

`Cc1cc2nc3c(=O)[nH]c(=O)nc-3n(CC(O)C(O)C(O)CO)c2cc1C` (stereo not drawn) was tested. Which Potency did it give?
The Potency was “inactive”.

With `O=C(CN1CCN(c2nc(-c3ccc(F)cc3)cs2)CC1)Nc1ccc2c(c1)OCO2` as the molecule, how does the Potency read?
The Potency was inconclusive [inhibitor, single point].

Which “activity, negative = inhibition” value does the source give for `CN1CCC(OC(=O)c2cccc(Cl)c2)CC1` here?
Its value is inactive: 4.76%.

How did the Potency turn out when `O=C(CSc1nc2ccccc2s1)Nc1ccc2c(c1)OCO2` was run?
The Potency was inconclusive [inhibitor, single point].

For `CCC1(CC)C(=O)N(C)C(=O)NC1=NCc1ccccc1`, which “activity, negative = inhibition” value is on record?
Its value is inactive: -0.105%.

With `O=c1c(Cl)c(NCC2CCCO2)cnn1C12CC3CC(CC(C3)C1)C2` (stereo not drawn) as the molecule, how does the Potency read?
Its Potency is active: 17.8 µM.

With `Cc1ccc(C(=O)Nc2ccc(S(=O)(=O)N3CCc4ccccc4C3)cc2)o1` as the molecule, how does the Potency read?
Its Potency is inconclusive [inhibitor, single point].

`Cc1cc(C)c2nc(N3CCC(C(=O)N4CCCC4)CC3)sc2c1` was tested. Which “activity, negative = inhibition” value did it give?
Its value is inactive: -12.3%.

How did the Potency turn out when `CC(=O)NCc1ccc(C(=O)CSc2nnc(-c3ccncc3)n2Cc2ccccc2)o1` was run?
The Potency was inconclusive [inhibitor, single point].

How did the Potency turn out when `Cc1nc2ccc(-c3nc4ccccc4o3)cc2[nH]1` was run?
Its Potency is inconclusive [inhibitor, partial curve].

Which Potency does the source give for `CCc1nnc(NC(=O)CSc2nnc(-c3c[nH]c4ccccc34)n2C)s1` here?
Its Potency is inconclusive [inhibitor, single point].

`Cc1ccccc1-n1c(SCC(=O)N/N=C/C=C/c2ccccc2[N+](=O)[O-])nc2ccccc2c1=O` was tested. Which Potency did it give?
The Potency was inconclusive [inhibitor, full curve].

With `O=C(C1=C(O)C(=O)N(c2nccs2)C1c1ccccc1)c1cc2ccccc2o1` (stereo not drawn) as the molecule, how does the Potency read?
The Potency was active: 22.4 µM.

Which “activity, negative = inhibition” value does the source give for `O=[N+]([O-])c1ccc2nc(CN3CCCCC3)[nH]c2c1` here?
Its value is inactive: -5.43%.

`Cn1c(=O)c2c(nc(Br)n2CCCc2ccccc2)n(C)c1=O` was tested. Which Potency did it give?
The Potency was inconclusive [inhibitor, single point].

`CSc1ccc(-c2nc(CSCC(=O)N3CCOCC3)c(C)o2)cc1` was tested. Which Potency did it give?
Its Potency is inconclusive [inhibitor, single point].

Which Potency does the source give for `Cn1cccc1Cc1nnc(SCC(=O)N2CCCc3ccccc32)n1-c1ccc(F)cc1` here?
The Potency was inconclusive [inhibitor, partial curve].

For `Cc1ccc(-n2c(Cc3cccn3C)nnc2SCC(=O)N2CCc3ccccc32)cc1`, which Potency is on record?
Its Potency is inconclusive [inhibitor, single point].

With `Cn1c(Cc2cccs2)n[nH]c1=S` as the molecule, how does the “activity, negative = inhibition” value read?
The value was inactive: -0.957%.

With `C=CCn1c(-c2c[nH]c3ccccc23)n[nH]c1=S` as the molecule, how does the Potency read?
Its Potency is inconclusive [inhibitor, partial curve].

With `CC(C)(C)C(=O)NC(=S)NCCc1ccccc1` as the molecule, how does the Potency read?
The Potency was active: 28.2 µM.

With `CN1C(=O)CC(C(=O)O)SC1=Nc1cccc(C(F)(F)F)c1` (stereo not drawn) as the molecule, how does the “activity, negative = inhibition” value read?
Its value is inactive: 2.8%.

`CCOC(=O)N1CCC(c2cc(=O)n3[nH]ccc3n2)CC1` was tested. Which Potency did it give?
Its Potency is inconclusive [inhibitor, partial curve].

With `Cc1ccc(S(=O)(=O)N/N=C/C(C)(C)CO)cc1` as the molecule, how does the Potency read?
The Potency was inconclusive [inhibitor, single point].

`Cc1ccc(C2CC(=O)Oc3cc(C)c(Cl)c(C)c32)cc1` (stereo not drawn) was tested. Which “activity, negative = inhibition” value did it give?
Its value is inactive: -12.9%.

Which Potency does the source give for `CCOC(=O)c1ccc2[nH]c(C)cc(=O)c2c1` here?
Its Potency is inconclusive [inhibitor, partial curve].
